# Source: patent US20170305996A1 (KOREA PRIME PHARM, published 2017)
# B1: KP-VR2 (VEGFR fusion protein: two human VEGFR1 domain2 fused in sequence to each heavy chain of human IgG1 Fc domain) (Fc fusion)
# chain: SDTGRPFVEMYSEIPEIIHMTEGRELVIPCRVTSPNITVTLKKFPLDTLIPDGKRIIWDSRKGFIISNATYKEIGLLTCEATVNGHLYKTNYLTHRQTNTIISDTGRPFVEMYSEIPEIIHMTEGRELVIPCRVTSPNITVTLKKFPLDTLIPDGKRIIWDSRKGFIISNATYKEIGLLTCEATVNGHLYKTNYLTHRQTNTIIA[human IgG1 Fc skipped]
# notes: also called the fusion protein of the present invention
# B2: KP-VR4 (aflibercept): human VEGFR1 domain 2 and VEGFR2 domain 3 fused to human IgG1 Fc domain (Fc fusion)
# chain: SDTGRPFVEMYSEIPEIIHMTEGRELVIPCRVTSPNITVTLKKFPLDTLIPDGKRIIWDSRKGFIISNATYKEIGLLTCEATVNGHLYKTNYLTHRQTNTIIDVVLSPSHGIELSVGEKLVLNCTARTELNVGIDFNWEYPSSKHQHKKLVNRDLKTQSGSEMKKFLSTLTIDGVTRSDQGLYTCAASSGLMTKKNSTFVRVHEKA[human IgG1 Fc skipped]
# notes: The number of copies follows the Fc dimer described for the constructs; also called VEGF-Trap; Eylea
# Tests used:
# VEGF-A165 [1] = target: T1, VEGF-A165 (UniProt P15692-4 27-191); experiment: ELISA, maximum binding (Example 4)
# T1 construct: Bought from R&D systems; also called VEGF165
# T1 sequence (looked up): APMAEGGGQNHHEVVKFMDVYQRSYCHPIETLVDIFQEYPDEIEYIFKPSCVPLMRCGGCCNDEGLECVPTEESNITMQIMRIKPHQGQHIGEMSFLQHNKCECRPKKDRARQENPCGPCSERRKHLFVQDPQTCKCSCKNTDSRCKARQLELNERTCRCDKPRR
# [2] = target: T2, PIGF (placental growth factor) (UniProt P49763-2 21-149, limits assumed); experiment: ELISA, maximum binding (Example 4)
# T2 construct: also called PLGF; placenta growth factor
# T2 sequence (looked up): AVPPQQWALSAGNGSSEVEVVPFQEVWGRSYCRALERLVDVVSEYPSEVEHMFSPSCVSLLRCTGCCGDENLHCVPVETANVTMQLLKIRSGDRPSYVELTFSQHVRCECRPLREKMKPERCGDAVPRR
# VEGF-A121 [3] = target: T3, VEGF-A121 (UniProt P15692-9 27-147); experiment: ELISA, maximum binding (Example 4)
# T3 construct: Bought from R&D systems; also called VEGF121
# T3 sequence (looked up): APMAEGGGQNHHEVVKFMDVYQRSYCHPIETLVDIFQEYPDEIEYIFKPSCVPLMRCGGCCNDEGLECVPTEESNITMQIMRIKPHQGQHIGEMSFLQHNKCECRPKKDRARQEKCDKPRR
# VEGF-A165 [4] = target: T1, VEGF-A165; experiment: ELISA, maximum binding, against aflibercept
# [5] = target: T2, PIGF (placental growth factor); experiment: ELISA, maximum binding, against aflibercept
# VEGF-A121 [6] = target: T3, VEGF-A121; experiment: ELISA, maximum binding, against aflibercept
# VEGF-A165 [7] = target: T1, VEGF-A165; experiment: cell-based or functional assay
Binder,Bmax (OD) (VEGF-A165 [1]),Bmax (OD) [2] [OD],Bmax (OD) (VEGF-A121 [3]),increase of Bmax against aflibercept (VEGF-A165 [4]) [%],increase of Bmax against aflibercept [5] [%],increase of Bmax against aflibercept (VEGF-A121 [6]) [%],endothelial cell migration inhibition rate IC50 (nM); HUVEC Transwell invasion assay with VEGF 350 ng/ml (VEGF-A165 [7]) [nM]
B1,1.93,3.42,2.1,54.4,54.3,44.8,11
B2,1.25,2.21,1.45,,,,20.1
